As a reminder, the % Inhibition is the change of the read-out against control, counted positive when it falls.

These results are taken from ChEMBL document CHEMBL4888484, “Replenishing the malaria drug discovery pipeline: Screening and hit evaluation of the MMV Hit Generation Library 1 (HGL1) against asexual blood stage Plasmodium falciparum ,using a nano luciferase reporter read-out” (2022).

Structures are written as SMILES. “And” between values parts separate entries of the source, which are not always exact repeats. Identical values can stand only once. The campaign covered roughly 150,000 compounds. About 540 (0.36%) showed an effect of 50% or more. The list shows a part of the results.

This assay concerns Plasmodium falciparum. Put plainly: Primary screen in NF54 nanoGlo assay, in single point, at 2uM, 72h; a lower Z score goes with more inhibition. Type of assay: functional, Erythrocyte. The following applies: timepoint 72 hour.

On to `O=C(c1cc(=O)c(OCc2ccccc2Cl)c[nH]1)N1CCCC1`, for which the “% Inhibition” value (2 µM) was -3% and 2%. On to `N#Cc1cccc(CN2C[C@@H](CO)[C@H](NC(=O)c3ccccc3)C2)c1`, for which the “% Inhibition” value is reported as -14% and the Z score amounted to 2.43. On the same counts, the results for `COC(=O)[C@H]1CN(c2nccn3cnnc23)C[C@@H]1c1ccc(O)cc1` are -12% and 1.54.

Consider `OC1CCN([C@H]2CCN(Cc3cccc(Cl)c3)C[C@@H]2O)CC1`, for which the “% Inhibition” value is given as -8% and the Z score came out at 1.55. For `CN1CC[C@H](Nc2ccc(OCc3ccccn3)c(F)c2)C1=O`, in that order: -8% and 1.21.

As to `Cc1cccnc1NC(=O)c1cc(O)ncn1`, the “% Inhibition” value is -11% and the Z score was 1.82. Take `CC1COCCN1CC(=O)N1CCCC1c1cccs1` (stereo not given): the “% Inhibition” value is given as 3% and the Z score is -0.37. For `Cc1ccc(-c2nc(CCN(C)C(=O)CC3CCCC3)no2)cc1`, in that order: -7% and 0.68. For `Cc1ccc(-c2nc(Cn3nnc(-c4nc(-c5ccc6c(c5)OCO6)no4)c3C)c(C)o2)cc1`, in that order: 0% and 0.06. For the compound `CC1CC(=O)CC(C2CC2)N1C(=O)[C@H]1CCCO1` (stereo not given in full), the “% Inhibition” value is on record as -9% and the Z score is listed as 1.68.

For the compound `Cc1nc([C@H]2CCCN2C(=O)c2cc(C(F)(F)F)n(C)n2)cs1`, the “% Inhibition” value is recorded as 7% and the Z score was -1.01.

As to `Cc1ccc(C(=O)N2CCCCCNC(=O)[C@@H]3CCC[C@@H]32)cn1`, the “% Inhibition” value is -4% and the Z score stood at 0.54.

Take `O=C(c1ccccc1)c1nccn1CC(=O)N1CCCCC1`: the “% Inhibition” value is recorded as -8% and the Z score stood at 1.15. On the same counts, the results for `Cc1cn2c(n1)CN(Cc1cscc1Cl)CC2` are -15% and 1.55. Regarding `NC(=O)c1ncc(Br)cc1N1CCC[C@H](F)C1`, the “% Inhibition” value is on record as -6% and the Z score was found to be 0.95. On the same counts, the results for `Fc1ccccc1-c1noc(Cc2nnc(-c3cccc(Cl)c3)o2)n1` are 4% and -0.53. On the same counts, the results for `O=C(N[C@H]1C[C@H](c2cc(N3CC[C@H](O)C3)ncn2)C1)c1cscn1` are -9% and 1.06. With `Cc1nc2c([nH]1)CC[C@H](C(=O)NCc1cccnc1N1CCCC1)C2`, the “% Inhibition” value is -10% and the Z score is reported as 1.69. On the same counts, the results for `CC(C(=O)N1CCCC1c1ccc[nH]1)N1CCCCCC1` (stereo not given) are 8% and -1.15. For the compound `O=C(NCCC(=O)N1CCOCC1)c1ccc2c3c(cccc13)CC2`, the “% Inhibition” value was -3% and the Z score is listed as 0.64.

Turning to `O=C(O)[C@H]1CN(C(=O)c2scc3c2CCCC3)C[C@@H]1c1cccnc1`, the “% Inhibition” value worked out at 3% and the Z score is on record as -0.47. On to `Cc1oc(-c2cccc(C(F)(F)F)c2)nc1CC(=O)N1CCc2ccccc2[C@@H]1c1ccc(F)cc1`, for which the “% Inhibition” value is given as -6% and the Z score is 0.99.

In the case of `CN(C[C@@H]1OCCc2ccccc21)C(=O)c1nc[nH]c1C(F)(F)F`, the “% Inhibition” value came to 2% and the Z score is recorded as -0.33. For `CC(C)(C)OC(=O)N1CCC2(CC1)CCN2C[C@H](O)C(F)(F)F`, in that order: -11% and 1.16. `O=C1CN(C(=O)Nc2ccc(CC(F)(F)F)cc2)C2(CCCCC2)C(=O)N1`: the “% Inhibition” value was -26% and the Z score amounted to 3.1. For the compound `O=C(Cn1cnc(-c2ccccc2)c1)NC[C@@H]1CCCN2CCCC[C@H]12`, the “% Inhibition” value is -12% and the Z score was 1.76.

Regarding `CS(=O)(=O)C1(C(=O)N2CCc3c(ccc(Cl)c3Cl)C2)CCCC1`, the “% Inhibition” value is listed as -9% and the Z score is given as 1.05.

Regarding `CCN(C)c1nc(-c2ccccc2)nc2c1CN(C(=O)Nc1ccc(F)c(Cl)c1)CC2`, the “% Inhibition” value is listed as -1% and the Z score is listed as 0.16. Turning to `O=C(COC[C@H]1CCCO1)N(c1nc2ccccc2o1)C1CC1`, the “% Inhibition” value is -4% and the Z score came out at 0.81. On the same counts, the results for `CC(C)c1ccc(-c2ccc(N(C)C)nc2)nn1` are -22% and 2.91.

Take `Cc1ccc(S(=O)(=O)/N=C(/CNCc2ccccc2)N2CCN(S(=O)(=O)c3ccc(C)cc3)[C@H]2C(C)C)cc1`: the “% Inhibition” value is listed as -6% and the Z score was 0.91. With `O=C(CCc1ccccc1)n1cnc2ccccc21`, the “% Inhibition” value is given as -4% and the Z score was determined as 0.52. For `CCc1ccc([C@@H]2CCCCN2C(=O)c2c[nH]c(=O)cc2OC)o1`, in that order: -4% and 0.62.

Take `CC[C@H](NC(=O)N(Cc1cocn1)Cc1cocn1)c1ccc(C)cc1C`: the “% Inhibition” value stood at 0% and the Z score is reported as -0.06. On the same counts, the results for `Cn1cnnc1CCN[C@@H](Cc1ccccc1)C1CCCCC1` are 0% and -0.06. For the compound `Cc1ccc(NC(=O)Cn2cc(C(=O)N3CCC(C)CC3)c(=O)c3ccc(C)nc32)cc1`, the “% Inhibition” value is -15% and the Z score turned out to be 1.91. On the same counts, the results for `Cc1ccc(F)cc1C=Cc1ccnnc1` are -5% and 1.04.

In the case of `Cn1c(=O)n(CC(=O)N(C2CCCC2)[C@H]2CCS(=O)(=O)C2)c2ccccc21`, the “% Inhibition” value was -10% and the Z score is listed as 1.6. For `O=C(Cc1ccsc1)N1CC[C@H](CCOc2ccccc2)C1`, in that order: 2% and -0.33. For `COCCC[C@H]1CCCCN1Cc1cnc(C)nc1`, in that order: -9% and 1.32. Consider `O=c1cc2cccc(Br)c2c[nH]1`, for which the “% Inhibition” value is given as -2% and the Z score was determined as 0.29. In the case of `Cc1cc(C)n(C(=O)c2ccc(Cl)c(S(=O)(=O)N3CCCCCC3)c2)n1`, the “% Inhibition” value was -5% and the Z score amounted to 0.81. For `C[C@H](NC(=O)N1CCC2(CC1)C(=O)N(C)C(=O)N2C)c1nc(C2CC2)no1`, the “% Inhibition” value is -12% and the Z score is 1.68. On to `CCOC(C)c1nc(CN(C)C(C)c2ccncc2)cs1` (stereo not given), for which the “% Inhibition” value is reported as -13% and the Z score is given as 1.7. On the same counts, the results for `Cc1nc(C(=O)NCCc2ccc(F)cc2)c(C)n1C1CCN(C)CC1` are -6% and 1.12.

With `Cc1ccc(C2=C[C@@H](c3ccccc3Cl)n3nc(NC(=O)CCc4ccccc4)nc3N2)cc1`, the “% Inhibition” value is listed as 2% and the Z score is reported as -0.27. On to `CCc1onc(C)c1[C@@H]1CCCN1S(=O)(=O)c1ccc(OC)cc1`, for which the “% Inhibition” value came to 0% and the Z score is 0.08.

Turning to `COc1c(C)cc(-c2ccc3nc(-c4ccc5c(c4)OCO5)oc3c2)cc1C`, the “% Inhibition” value turned out to be 6% and the Z score was -0.72.

`CN1CCn2ccnc2C12CCN(S(=O)(=O)c1ccccc1)CC2`: the “% Inhibition” value is -7% and the Z score amounted to 0.92. Regarding `CC[C@H](C)N(CC(=O)N(Cc1cccn1Cc1ccccc1Cl)C1CCCCC1)C(=O)Nc1cccc(F)c1`, the “% Inhibition” value came out at 2% and the Z score is given as -0.39. On the same counts, the results for `O=C(Nc1nc2c(Cl)cccc2n1CC(F)(F)F)[C@H]1CCOC1` are 7% and -1.24.

`CN(C)c1ccc([C@@H](CNC(=O)c2cccc(F)c2)c2c[nH]c3ccccc23)cc1`: the “% Inhibition” value was 2% and the Z score was -0.26. For `FC(F)(F)Cn1ncnc1CCc1ccncc1`, in that order: 2% and -0.26. For `O=C(CN1C(=O)CCC1=O)N1CCN(S(=O)(=O)c2ccc(Br)cc2)CC1`, in that order: -14% and 1.24. With `O=C(Nc1ccnn1C1CCN(C2CCC2)CC1)c1ccc2c(c1)OCO2`, the “% Inhibition” value is recorded as -21% and the Z score is 1.88. On the same counts, the results for `O=C(O)C1(Oc2cccc(F)c2)CCN(Cc2c[nH]cn2)CC1` are -4% and 0.77. For the compound `NC(=O)N1CC[C@H](NC(=O)Cc2cccc(Cl)c2Cl)C1`, the “% Inhibition” value worked out at 5% and the Z score was -0.42. In the case of `Clc1cnc(-c2cccc3cnccc23)nc1`, the “% Inhibition” value is -20% and the Z score is 1.96. Take `O=c1[nH]c(-c2nccs2)nc2cc(Cl)c(Cl)cc12`: the “% Inhibition” value is on record as -18% and the Z score stood at 1.57. On the same counts, the results for `C[C@]1(F)CCCN(CCN2CCCC2=O)C1` are -8% and 1.21. Consider `CCN(CCN1C[C@@H]2CC[C@H]1C2)Cc1noc(C2CCC2)n1`, for which the “% Inhibition” value was -3% and the Z score came out at 0.59.

On to `O=C(Nc1nc(-c2ccccc2)cs1)[C@@H]1CCCO1`, for which the “% Inhibition” value worked out at 2% and the Z score is recorded as -0.16. As to `CC1(c2noc(-c3ccccc3)n2)CCN(C(=O)CCC(=O)n2ncc3c(Cl)cccc32)CC1`, the “% Inhibition” value is on record as -11% and the Z score stood at 1.46. On the same counts, the results for `O=C1CCC2(CCNCC2)CN1CCOCc1ccc(Cl)cc1` are -14% and 1.64.

With `Cc1cccc(-c2noc(N3CCOCC3)c2CN(C(=O)CC(C)C)C2CC2)c1`, the “% Inhibition” value is listed as -12% and the Z score is listed as 1.29. For `COCC(=O)N[C@H]1C[C@@H](C(=O)NCc2ccccc2F)N(C)C1`, in that order: -8% and 1.63.

Consider `CN(Cc1ccccn1)Cc1cncs1`, for which the “% Inhibition” value was -9% and the Z score was 1.02. On to `COc1ccc(-n2cccn2)cc1S(=O)(=O)N1C[C@@H]2CC[C@H]1CN(C)C2`, for which the “% Inhibition” value is -22% and the Z score is on record as 2.24. As for `CCCCOCC(=O)N1CCN(c2ncccn2)[C@H]2CS(=O)(=O)C[C@H]21`, the “% Inhibition” value is reported as -6% and the Z score worked out at 1.08. On the same counts, the results for `CCc1nnc(-n2nc(C)cc2-c2ccccc2)n1N` are 3% and -0.48.

With `Cn1ccc(CC(=O)N(CC(=O)Nc2ccc(F)cc2)C(C)(C)C)n1`, the “% Inhibition” value amounted to 28% and the Z score is given as -3.74. In the case of `O=C(Cc1cccc(C(F)(F)F)n1)Nc1cc([C@@H]2CCCO2)n[nH]1`, the “% Inhibition” value was determined as 0% and the Z score is -0.02.

Turning to `Cc1ccc(S(=O)(=O)N2CC(=O)N(CCC3=CCCCC3)[C@](C)(C(=O)NCCC(C)C)C2)cc1`, the “% Inhibition” value is recorded as -8% and the Z score amounted to 0.94.

Consider `Cc1nc(Cn2ccnn2)n(CC2CCCCC2)n1`, for which the “% Inhibition” value is listed as -1% and the Z score came out at 0.19.

Consider `CC1(C)CCN(C(=O)NCCc2cscn2)CC(C)(C)C1`, for which the “% Inhibition” value was -11% and the Z score was 1.68.

With `Cc1cccn2cc(CN3CCCC[C@@H]3Cn3cncn3)nc12`, the “% Inhibition” value is reported as -16% and the Z score was determined as 1.62. For `Fc1ccc(-c2nnc(Cc3nc(-c4ccc(Cl)cc4)no3)o2)cc1`, the “% Inhibition” value was determined as 4% and the Z score is -0.73. For the compound `CC(C)c1cc(N2CC[C@H](c3ccccc3C(=O)O)C2)nc(C(F)(F)F)n1`, the “% Inhibition” value is reported as -7% and the Z score is 0.91. On the same counts, the results for `Cc1ncc(C(=O)N2CC(C)(C)Oc3cc(Br)ccc32)s1` are 0% and 0.01.

Regarding `Cc1noc(-c2c(C)[nH]c(C)c2S(=O)(=O)Nc2ccc(C(C)C)cc2)n1`, the “% Inhibition” value is recorded as -9% and the Z score was 1.78.

For the compound `Cc1nc(N)nc(N2CCC(NCc3cn4ccccc4n3)CC2)c1Cl`, the “% Inhibition” value is on record as -6% and the Z score worked out at 1.32. On the same counts, the results for `O=C(N(Cc1ccccc1)Cc1ccccc1)C(F)(F)OC(F)(F)C(F)(F)OC(F)(F)C(F)(F)OC(F)(F)C(F)(F)OC(F)(F)F` are 4% and -0.46. On the same counts, the results for `CCOC(=O)c1nc2c(s1)N(Cc1conc1C)CCCC2` are -3% and 0.3.
